Measured values published in the supplement of paper PMC4967469.

Tests used:
Test in all cases: Viability of human cancer cell lines after 72 h of drug (GDSC screen)
BMX-IN-1 (QL-XII-61) = compound: C=CC(=O)Nc1cc(-n2c(=O)ccc3cnc4ccc(-c5ccc(NS(C)(=O)=O)cc5)cc4c32)ccc1C [BMX-IN-1 (QL-XII-61)]; conditions: top dose 10 µM; top dose inferred
Method: (§1)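 Human cancer cell lines in 384-well plates, medium with 10% serum, drug for 72 h over a 256-fold dose range (nine 2-fold or five 4-fold steps up to the top dose). Adherent lines were fixed and stained with the nucleic acid dye Syto60, suspension lines read with resazurin; signal relative to control wells, capped at 0 and 100%. One two-parameter sigmoid per drug and line, fitted in a mixed model over all curves with the slope shared within a line.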

17-AAG = compound: C=CCNC1=C2C[C@@H](C)C[C@H](OC)[C@H](O)[C@@H](C)/C=C(\C)[C@H](OC(N)=O)[C@@H](OC)/C=C\C=C(/C)C(=O)NC(=CC1=O)C2=O [17-AAG]; conditions: top dose 1 µM
Method: as §1

CCT018159 = compound: CCc1cc(-c2n[nH]c(C)c2-c2ccc3c(c2)OCCO3)c(O)cc1O [CCT018159]; conditions: top dose 10 µM; top dose inferred
Method: as §1

BIX02189 = compound: CN(C)Cc1cccc(N=C(c2ccccc2)c2c(O)[nH]c3cc(C(=O)N(C)C)ccc23)c1 [BIX02189]; conditions: top dose 20 µM; top dose inferred
Method: as §1

Dimethyloxalylglycine = compound: COC(=O)CNC(=O)C(=O)OC [Dimethyloxalylglycine]; conditions: top dose 4000 µM; top dose inferred
Method: as §1

Doxorubicin = compound: COc1cccc2c1C(=O)c1c(O)c3c(c(O)c1C2=O)C[C@@](O)(C(=O)CO)C[C@@H]3O[C@H]1C[C@H](N)[C@H](O)[C@H](C)O1 [Doxorubicin]; conditions: top dose 1.024 µM
Method: as §1

OSI-027 = compound: COc1cccc2cc(-c3nc([C@H]4CC[C@H](C(=O)O)CC4)n4ncnc(N)c34)[nH]c12 [OSI-027]; conditions: top dose 20 µM
Method: as §1

Vismodegib = compound: CS(=O)(=O)c1ccc(C(=O)Nc2ccc(Cl)c(-c3ccccn3)c2)c(Cl)c1 [Vismodegib]; conditions: top dose 10 µM; top dose inferred
Method: as §1

VX-11e = compound: Cc1cnc(Nc2ccc(F)cc2Cl)nc1-c1c[nH]c(C(=O)N[C@H](CO)c2cccc(Cl)c2)c1 [VX-11e]; conditions: top dose 5.12 µM; top dose inferred
Method: as §1

TG101348 = compound: Cc1cnc(Nc2ccc(OCCN3CCCC3)cc2)nc1Nc1cccc(S(=O)(=O)NC(C)(C)C)c1 [TG101348]; conditions: top dose 10.24 µM
Method: as §1

UNC1215 = compound: O=C(c1ccc(C(=O)N2CCC(N3CCCC3)CC2)c(Nc2ccccc2)c1)N1CCC(N2CCCC2)CC1 [UNC1215]; conditions: top dose 1 µM; top dose inferred
Method: as §1

Cell Line	AUC (BMX-IN-1 (QL-XII-61))	IC50 (BMX-IN-1 (QL-XII-61)) [µM]	AUC (17-AAG)	IC50 (17-AAG) [µM]	AUC (CCT018159)	IC50 (CCT018159) [µM]	AUC (BIX02189)	IC50 (BIX02189) [µM]	AUC (Dimethyloxalylglycine)	IC50 (Dimethyloxalylglycine) [µM]	AUC (Doxorubicin)	IC50 (Doxorubicin) [µM]	AUC (OSI-027)	IC50 (OSI-027) [µM]	AUC (Vismodegib)	IC50 (Vismodegib) [µM]	AUC (VX-11e)	IC50 (VX-11e) [µM]	AUC (TG101348)	IC50 (TG101348) [µM]	AUC (UNC1215)	IC50 (UNC1215) [µM]
JEG-3 (urogenital system, adherent)	0.99	> 10	0.691	0.202	0.844	6.15	0.991	> 20	0.794	1650	0.59	0.11	0.988	> 20	0.991	> 10	0.991	> 5.12	0.991	> 10.2	0.99	> 1
639-V (bladder, adherent)	0.856	6.22	0.71	0.22	0.887	8.25	0.988	> 20	0.726	973	0.295	0.0188	0.811	8.69	0.956	> 10	0.986	> 5.12	0.921	> 10.2	0.991	> 1
SBC-3 (small cell lung carcinoma, adherent)	0.955	> 10	0.867	0.769	0.943	> 10	0.895	> 20	0.201	36.3	0.27	0.0153	0.059	< 0.0781	0.989	> 10	0.912	> 5.12	0.637	1.47	0.988	> 1
RERF-LC-Sq1 (lung squamous cell carcinoma, adherent)	0.976	> 10	0.657	0.21	0.946	> 10	0.953	> 20	0.807	3360	0.908	> 1.02	0.756	10	0.961	> 10	0.97	> 5.12	0.837	> 10.2	0.973	> 1
VMRC-RCZ (kidney, adherent)	0.939	> 10	0.654	0.18	0.955	> 10	0.945	> 20	0.68	869	0.49	0.06	0.307	0.325	0.964	> 10	0.962	> 5.12	0.867	> 10.2	0.981	> 1
RH-1 (rhabdomyosarcoma, adherent)	0.916	> 10	0.951	> 1	0.957	> 10	0.861	12.6	0.665	658	0.243	0.0136	0.162	0.149	0.992	> 10	0.934	> 5.12	0.975	> 10.2	0.989	> 1
MN-60 (B-cell leukaemia, suspension)	0.922	> 10	0.988	> 1	0.981	> 10	0.931	> 20	0.417	146	0.821	0.623	0.268	0.265	0.98	> 10	0.986	> 5.12	0.775	4.22	0.98	> 1
NCI-H28 (mesothelioma, adherent)	0.957	> 10	0.582	0.113	0.869	> 10	0.964	> 20	0.749	1660	0.888	> 1.02	0.936	> 20	0.958	> 10	0.969	> 5.12	0.895	> 10.2	0.978	> 1
KMH-2 (thyroid, adherent)	0.987	> 10	0.926	> 1	0.941	> 10	0.99	> 20	0.775	1410	0.463	0.0514	0.236	0.24	0.99	> 10	0.986	> 5.12	0.766	3.38	0.989	> 1
LCLC-97TM1 (large cell lung carcinoma, adherent)	0.855	9.25	0.577	0.104	0.901	> 10	0.838	15.4	0.417	144	0.246	0.011	0.232	0.19	0.934	> 10	0.766	2.07	0.598	1.23	0.97	> 1
PCI-30 (head and neck, adherent)	0.954	> 10	0.416	0.0349	0.868	> 10	0.969	> 20	0.665	804	0.905	> 1.02	0.93	> 20	0.963	> 10	0.981	> 5.12	0.95	> 10.2	0.975	> 1

The IC50 comes from the fitted curve, where viability falls to half of the control; fits outside the tested doses are given as limits. AUC is the area under the same curve over the 256-fold range up to the top dose, as a fraction; it is 1 without any effect and falls as sensitivity rises. For some assays here: The top dose, if marked as inferred, was derived from the fitted curves, not read from the paper.
